PubChem BioAssay AID686970 (National Center for Advancing Translational Sciences (NCATS), 2013)
The campaign covered roughly 360,000 compounds. About 6,000 (1.7%) were called active. Inconclusive results, whose numbers are uncertain, are shown with a selection of clear calls. Calls come from the whole dose curve; as a rule, active = well fitted cell-killing curve with a large enough effect; inconclusive = small, poorly fitted or top-dose-only effect, or effect the other way; inactive = flat fitted curve, though single readings scatter. Potencies of inconclusive entries are left out as doubtful fits.

test: qHTS for induction of synthetic lethality in tumor cells producing 2HG: qHTS for the HT-1080-NT fibrosarcoma cell line; settings: HT-1080-NT fibrosarcoma viability, CellTiter-Glo ATP luminescence, 48 h; activity, negative = less viability: at 46.1 µM (top of the series) unless noted;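 note: NT is the 2HG producing partner of a matched IDH1 knockdown line; nearly all actives have a fitted effect of over 55% in size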;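 for activity, negative = less viability: 0% = DMSO-treated cells and -100% = media-only wells without cells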
Procedure, shortened: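 HT-1080-NT fibrosarcoma cells (2HG-overproducing), 750 cells/well in RPMI with 5% FBS, dosed after 2 h and incubated 48 h at 37C. CellTiter-Glo luminescence normalized to DMSO and no-cell wells; concentration-response curves fitted and classed.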
Potency is the fitted concentration of half-maximal effect; tags give direction and shape of the fitted curve.

Structure (SMILES)	Potency	activity, negative = less viability
COc1ccc(Cn2c(=O)c3[nH]cnc3n(-c3ccccc3C)c2=O)cc1	active: 11.6 µM	–
O=C1N/C(=N\N=C\c2cccs2)SC1Cc1ccc(Cl)cc1 (stereo not drawn)	active: 18.4 µM	–
O=C(CN1C(=O)CCC1=O)NNc1ccc2ccccc2c1	active: 2.91 µM	–
COc1ccc(/C=C2\SC(=O)N(CCNC(=O)C3=COCCO3)C2=O)cc1	active: 7.31 µM	–
O=C(CSc1n[nH]c(-c2ccco2)n1)Nc1ccc(Br)cc1	inconclusive [cytotoxic, partial curve, poor fit]	–
CN1C(=O)/C(=C\c2ccc(N(C)C)cc2)OC1=S	inconclusive [rising, partial curve]	–
CCOC(=O)C1(Cc2cccc(OC)c2)CCN(Cc2cccc(OCC)c2O)CC1	inconclusive [cytotoxic, single point]	–
CC1CCN(c2ccc(NC(=O)C3CCCN3S(=O)(=O)c3ccc(F)cc3)cc2)CC1 (stereo not drawn)	–	inactive: -2.21% [at 9.24 µM]
C/C(=N\NC(=O)c1nnn(-c2nonc2N)c1-c1ccccc1)c1ccccc1O	inconclusive [cytotoxic, full curve]	–
CCOc1ccccc1N(CC(=O)N1CCCCCC1)S(=O)(=O)c1ccc(C)cc1	–	inactive: -2.27%
CC(=O)N1N=C(c2ccc(NS(=O)(=O)c3ccccc3)cc2)CC1c1ccco1 (stereo not drawn)	active: 4.61 µM	–
C[C@H](CO)N1C[C@H](C)[C@@H](CN(C)Cc2ccc(Cl)c(Cl)c2)Oc2c(NS(=O)(=O)c3cn(C)cn3)cccc2C1=O	–	inactive: 2.81%
COc1ccc(CNS(=O)(=O)NCc2ccc(C)cc2)cc1	–	inactive: 7.88%
COc1ccc(CN2CCN(CCCCOc3ccc(Cl)cc3)CC2)c(OC)c1OC	inconclusive [cytotoxic, single point]	–
Cc1ccc(S(=O)(=O)Nc2nc(C)cc(-n3nc(C)cc3C)n2)cc1	inconclusive [cytotoxic, single point]	–
O=C(Nc1cccc(C(=O)O)c1)/C(=C\c1ccccc1)NC(=O)c1ccco1	–	inactive: 29%
CC1CN(S(=O)(=O)c2cccc(C(=O)OCC(=O)Nc3ccc4c(c3)OCO4)c2)CC(C)O1 (stereo not drawn)	inconclusive [cytotoxic, single point]	–
Cc1ccc(C(=O)/C=C/C(=O)O)cc1	inconclusive [cytotoxic, single point]	–
CCN(c1ccccc1)S(=O)(=O)c1ccc(Cl)c(C(=O)NC2CCN(Cc3ccccc3)CC2)c1	–	inactive: -11.9%
Cc1cc(CC(=O)O)c2oc(-c3ccoc3)cc(=O)c2c1	–	inactive: -3.98%
O=C(Nc1ccc(Cl)c(Cl)c1)Nc1ccc(N2CCCC2)c(S(=O)(=O)Nc2ccccc2Cl)c1	inconclusive [cytotoxic, partial curve]	–
Cc1cccc(OCC(=O)N/N=C/C=C/c2ccco2)c1	inconclusive [rising, full curve, poor fit]	–

Structure (SMILES)	Potency	activity, negative = less viability
Cc1c(C)n(Cc2ccccc2)c2ccc(C(=O)OCCN(C)C)cc12	inconclusive [cytotoxic, single point]	–
O=C(NCc1ccccc1)C(c1ccncc1)n1c(=O)c(-c2cc3ccccc3[nH]2)nc2ccccc21 (stereo not drawn)	inconclusive [cytotoxic, single point]	–
Cc1ccc(S(=O)(=O)N2[C@@H](Cc3ccccc3)CO[C@H]2CC(=O)OCc2ccccc2)cc1	–	inactive: -7.46%
CCc1nnc(NC(=O)c2sc3nc4c(cc3c2N)CCCCCC4)s1	inconclusive [cytotoxic, partial curve]	–
COc1ccc(NC(=S)NC(NC(=O)c2cccc(C)c2)C(Cl)(Cl)Cl)c([N+](=O)[O-])c1 (stereo not drawn)	inconclusive [cytotoxic, single point]	–
O=C(CSC1=NCCS1)Nc1ccnc2ccccc12	inconclusive [cytotoxic, single point]	–
CN(C)c1nc(N2CCN(c3ccccc3)CC2)c(C#N)c(=O)o1	inconclusive [rising, partial curve]	–
N#CCc1ccc(NC(=O)Nc2cccc(Cl)c2)cc1	–	inactive: -1.66%
O=C(NCCN1CCN(c2ccccc2)CC1)c1cccc(Br)c1	inconclusive [cytotoxic, single point]	–
Cc1ccccc1OCC(O)COc1ccccc1C	inconclusive [cytotoxic, single point]	–
CC(C)Oc1ncnc2c1[nH]c1ccccc12	inconclusive [cytotoxic, single point]	–
COc1ccc(C(NC(=O)C(C)C)c2c(O)ccc3ccccc23)cc1 (stereo not drawn)	inconclusive [cytotoxic, single point]	–
Cc1ccc(C(C[N+](=O)[O-])c2c(-c3ccccc3O)[nH][nH]c2=O)cc1 (stereo not drawn)	inconclusive [cytotoxic, single point]	–
COc1ccc(NC(=O)N(C)C[C@H]2Oc3ccc(NS(=O)(=O)c4ccccc4)cc3C(=O)N([C@H](C)CO)C[C@@H]2C)cc1	–	inactive: 5.08%
OC(c1cccc(F)c1)c1ncc(-c2ccc3ccccc3c2)[nH]1 (stereo not drawn)	inconclusive [cytotoxic, single point]	–
CC(=O)c1ccc(-c2cc([C@H]3[C@H]4C=CC[C@@H](C)[C@@H]4C(=O)N3Cc3ccccc3)ccc2F)cc1	–	inconclusive: -31% [cytotoxic]
CCOc1ccc(CCn2c(-c3ccco3)nc3ccccc3c2=O)cc1OCC	inconclusive [cytotoxic, partial curve]	–
Cc1sc2ncnc(SCC(=O)Nc3nc(-c4ccc(F)c(F)c4)cs3)c2c1C	–	inactive: -0.0809%
CCCNC(=O)C(=O)Nc1ccc2c(c1)N(S(=O)(=O)c1cccs1)CCC2	inconclusive [cytotoxic, partial curve]	–
O=C(NC1CCCCC1)C(c1cccs1)N(CCCN1CCOCC1)C(=O)c1ccc(-c2ccccc2)[nH]1 (stereo not drawn)	inconclusive [cytotoxic, single point]	–
COc1cc2c(cc1OC)C(O)=CC(=O)C2=O	inconclusive [cytotoxic, single point]	–
